Results reported in PubChem BioAssay (NCATS).
The inconclusive results got no clear call from the source; some entries with a clear call stand among them for comparison. For some of these results: No potency is given beside an inconclusive call; the fits are too rough. For some of these results: “Side channel” marks fits to a control or component signal instead of the main read-out. Calls of active or inactive are those of the source. Unless noted, calls come from the whole dose curve; as a rule, active = well fitted curve in the direction sought with a large enough effect; inconclusive = small, poorly fitted or top-dose-only effect, or another doubt; inactive = no such curve, though single readings can be large; an effect the other way counts as inactive or inconclusive.

Tests used:
[1] = qHTS of pediatric cancer cell lines to identify multiple opportunities for drug repurposing: Primary screen for BT-12 cells (AID 1347101); note: nearly all actives have a fitted effect of over 25% in size; note: potency is the fitted concentration of half-maximal effect
Procedure, shortened: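 Cells (500-1,000/well) rested 5 h, then received compounds for 48 h; metabolically active cells were measured by CellTiter-Glo luminescence. Final concentrations spanned up to 46 µM (MIPE, 11-point) or 0.59 nM-46 µM (NPC, 8-point) in primary screens, 11-point in follow-ups.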

[2] = A High-Content qHTS Against Drug Library for the Identification of Small Molecules that Inhibit DYT1 Early Onset Primary Dystonia-Associated Cell Pathology (AID 1645839; calls by dose curve; note: potency is the fitted concentration of half-maximal effect)
Procedure, shortened: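 Induced EGFP-delE TorsinA cells are imaged after 48 h of compound treatment. Punctate fusion-protein distribution gives the %pathology value, while nuclei counts flag toxicity. Wild-type EGFP-hTOR1A cells define the normal pattern.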

[3] = qHTS for differential inhibitors of proliferation of Plasmodium falciparum line W2 (AID 1883); settings: Potency: Plasmodium falciparum W2 proliferation inhibition;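 note: parasites grown with compound for 72 h before lysis and staining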; note: potency is the fitted concentration of half-maximal effect;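 for activity change, negative = inhibition: 0% = vehicle wells and -100% = control inhibitor wells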
[4] = target: N-terminal Xaa-Pro-Lys N-methyltransferase 1 (Homo sapiens) (UniProt Q9BV86); experiment: qHTS Assay for Inhibitors of N-terminal methyltransferase 1 (NTMT1): LOPAC validation of the NTMT1 SAHH-coupled ThioGlo3 Assay (AID 1347143);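 note: SAH from peptide methylation measured as thiol fluorescence via SAHH coupling and ThioGlo3; nearly all actives have a fitted effect of over 70% in size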; note: potency is the fitted concentration of half-maximal effect; for activity change, negative = inhibition: % is set by controls: 0 for no effect and ±100 for the full control effect
Procedure, shortened: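 In this qHTS pilot against the LOPAC set, 125nM NTMT1 met compounds tested at multiple concentrations, and fluorescence was normalized to background.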

[5] = qHTS to identify inhibitors of the type 1 interferon - major histocompatibility complex class I in skeletal muscle: primary screen against the NCATS LOPAC collection (AID 1347405); settings: iHSKM muscle cells, IFN-b-induced MHC-I HiBiT luminescence, 24 h; activity change, negative = inhibition: at 45.9 µM (top of the series);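 note: human myoblasts with HiBiT tag on endogenous HLA-B stimulated by IFN-beta; lytic HiBiT luminescence reporting HLA-B protein level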; note: potency is the fitted concentration of half-maximal effect; for activity change, negative = inhibition: % is set by controls: 0 for no effect and ±100 for the full control effect
Procedure, shortened: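 First, engineered myoblasts carrying HLA-B-HiBiT were seeded in medium lacking dexamethasone with 4 ng/ml IFN-beta. After 1 hr, compounds were pinned in (top 46 uM final, 7 points). After 24 hrs at 37 C, luminescence was measured following 10 min lysis.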

[6] = Cell Viability - N2a (AID 540); settings: N2a mouse neuroblastoma cell viability; activity change, negative = cytotoxicity: at 92.2 µM (top of the series);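 note: cells exposed to compound for 40 h at 37 °C; plate controls were DMSO alone for no effect and tamoxifen control for full effect; nearly all actives have a fitted effect of over 45% in size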
Procedure, shortened: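 Cytotoxicity was scored as loss of cellular ATP in N2a cells, a mouse neuroblastoma line. Compounds are applied in a qHTS concentration series for 40 hr at 37 °C.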

[7] = Cell Viability - H-4-II-E (AID 543);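 note: potency is the fitted concentration of half-maximal effect; cells exposed to compound for 40 hours; nearly all actives have a fitted effect of over 35% in size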
Procedure, shortened: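 Cells seeded at 1500 per well and rested 5 hr; compounds added; 40 hr incubation at 37 °C; CellTiter-Glo added, 20 min at room temperature; luminescence read. Hill-equation fits gave AC50.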

[8] = Cell Viability - SH-SY5Y (AID 544); settings: SH-SY5Y neuroblastoma cell viability; at 92.2 µM (top of the series);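 note: cells exposed to compound for 40 hours; 0% = DMSO alone and -100% = 100 µM tamoxifen; nearly all actives have a fitted effect of over 55% in size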
Procedure, shortened: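 Cells were plated at 1500 per well and allowed 5 hr at 37 °C. Compounds were added across a concentration range and incubated 40 hr at 37 °C. CellTiter-Glo was added for 20 min at room temperature before luminescence reading.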

[9] = Cell Viability - Renal Proximal Tubule (AID 545); settings: renal proximal tubule cells viability, primary cells of rat origin; at 91.7 µM (top of the series);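 note: cells exposed to compound for 40 hours; 0% = DMSO only and -100% = 100 µM tamoxifen; nearly all actives have a fitted effect of over 40% in size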
Procedure, shortened: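 Rat kidney proximal tubule cells, freshly isolated; 1000 cells/well, 5 hr settle, compound 40 hr 37 °C. CellTiter-Glo 20 min RT, luminescence read. AC50 by standard Hill fit.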

[10] = Cell Viability - LYMP1-003 - Assay at 40 hr (AID 964); note: potency is the fitted concentration of half-maximal effect; nearly all actives have a fitted effect of over 60% in size
Procedure, shortened: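 Luminescent ATP signal (CellTiter-Glo) served as the viability read-out after 40 hr compound treatment of human lymphoblastoid LYMP1-003 cells at 37 C. Decreases in ATP were fitted with the Hill equation to give AC50.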

[11] = Cell Viability - LYMP2-004 (AID 966);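 note: potency is the fitted concentration of half-maximal effect; cells exposed to compound for 24 h; nearly all actives have a fitted effect of over 65% in size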
Procedure, shortened: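 qHTS cytotoxicity: human lymphoblastoid line, 24 hr compound treatment, 37 C, complete medium. Viability read as cellular ATP via luciferase luminescence; tetraoctylammonium bromide served as positive control.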

[12] = Cell Viability - LYMP2-015 (AID 971); settings: LYMP2-015 lymphoblastoid cell viability; activity change, negative = lower viability: at 92.2 µM (top of the series);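 note: cells exposed to compound for 24 h; nearly all actives have a fitted effect of over 55% in size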; note: potency is the fitted concentration of half-maximal effect;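 for activity change, negative = lower viability: 0% = DMSO only and full effect = 92 µM tetraoctylammonium bromide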
Procedure, shortened: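 Cells are seeded at 2500 per well and incubated 5 hr at 37 C. Compounds are added across a concentration series for 24 hr at 37 C. CellTiter-Glo is added, and luminescence is read after 30 min at room temperature.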

[13] = Cell Viability - LYMP2-019 (AID 973);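 note: cells exposed to compound for 24 h at 37 °C; nearly all actives have a fitted effect of over 55% in size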; note: potency is the fitted concentration of half-maximal effect;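 for activity change, negative = cytotoxicity: 0% = DMSO alone and full effect = 92 µM tetraoctylammonium bromide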
Procedure, shortened: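 Cytotoxicity is scored as a concentration-dependent drop in cellular ATP after cells (2500/well) receive compound for 24 hr at 37 C. Tetraoctylammonium bromide serves as positive control.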

[14] = Cell Viability - LYMP2-007 (AID 979);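 note: cells exposed to compound for 24 h before reading; nearly all actives have a fitted effect of over 60% in size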; note: potency is the fitted concentration of half-maximal effect;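 for activity change, negative = cytotoxicity: 0% = DMSO only and the negative end = 92 µM tetraoctylammonium bromide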
Procedure, shortened: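 Cells are seeded at 2500 per well and rested 5 hr. Compounds are then added over a concentration series for 24 hr at 37 C. CellTiter-Glo is added for 30 min at room temperature before luminescence reading.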

[15] = qHTS assay for small molecule antagonists of the retinoid-related orphan receptor gamma (ROR-gamma) signaling pathway - cell viability counter screen (AID 720652; active = well fitted curve in the direction sought with a large enough effect in the repeat runs; inconclusive = weak or mixed curves; inactive = no such curve, though single readings can be large; an effect the other way counts as inactive or inconclusive;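 note: potency is the fitted concentration of half-maximal effect; compound exposure lasted 16 hr before ATP read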)
Procedure, shortened: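 Steps: seed CHO cells bearing TET-inducible ROR and ROR response element-luciferase; rest 5 hr at 37 C; add compound, then doxycycline; incubate 16 hr; add CellTiter-Glo and read luminescence as ATP-based viability.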

[16] = target: Cytochrome P450 2C19 (Homo sapiens) (UniProt P33261); experiment: qHTS for inhibitors of CYP2C19 against the NCATS DSHEA and TCM libraries (AID 1919974); settings: CYP2C19 enzyme inhibition, luminescence qHTS;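 note: luminescence from luciferin released by CYP2C19 oxidation of a pro-luciferin substrate; potency is the fitted concentration of half-maximal effect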
Procedure, shortened: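 Concentration-response screening with isoform-matched pro-luciferin substrates. The CYP reaction was initiated by NADPH regenerating solution and ran 30-45 min in darkness at room temperature.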

[17] = tested on: CP305; experiment: qHTS profiling for inhibitors of Plasmodium falciparum proliferation (AID 504749); note: potency is the fitted concentration of half-maximal effect; nearly all actives have a fitted effect of over 60% in size; settings: P. falciparum in erythrocytes, SYBR Green DNA, 72 h
Procedure, shortened: (§1)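 Quantitative HTS: compounds pinned into medium, infected erythrocytes added (0.3% parasitemia, 2.5% hematocrit), 72 h culture at 37 C under 5% CO2. Saponin/Triton lysis with SYBR Green I, overnight RT, then fluorescence read.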

[18] = tested on: Dd2; experiment: as above; settings: P. falciparum in erythrocytes, SYBR Green DNA, 72 h
Procedure, shortened: as §1

[19] = target: Glucocorticoid receptor (Homo sapiens) (UniProt P04150); experiment: qHTS assay for small molecule agonists of glucocorticoid receptor signaling (AID 588532; active = well fitted curve in the direction sought with a large enough effect in the signal ratio, with a control signal flat; inconclusive = small, poorly fitted or top-dose-only effect, or a change in a side signal; inactive = no such curve, though single readings can be large or run the other way; the % refers to the signal ratio; note: potency is the fitted concentration of half-maximal effect;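 for activation: 100% = dexamethasone at 0.1 µM and 0% = DMSO only wells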); settings: HeLa MMTV-bla, beta-lactamase ratio, agonist, 18 h; activation: active compounds read high, percent of dexamethasone control, DMSO zero
Procedure, shortened: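 Stimulation of a glucocorticoid response element-driven beta-lactamase gene was measured in HeLa cells. Responses were scaled between DMSO basal and 0.1 uM dexamethasone, then fitted for half-maximal stimulation.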

[20] = target: Thyroid hormone receptor beta (Homo sapiens) (UniProt P10828); experiment: qHTS assay for small molecule antagonists of thyroid hormone receptor beta signaling (AID 588547; active = well fitted inhibition curve with a large enough effect in the signal ratio, with a control signal flat, not every such curve was filed as active; inconclusive = small, poorly fitted or top-dose-only effect, or effect the other way, or a change in a side signal; the % refers to the signal ratio;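 note: cells stimulated with 0.4 nM T3 agonist during compound exposure; % is set by controls: 0 for no effect and ±100 for the full control effect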); settings: TR-UAS-bla HEK293, beta-lactamase ratio, antagonist mode, 18 h
Procedure, shortened: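 TR-UAS-bla GripTite HEK293 cells in 2% charcoal/dextran FBS medium were preincubated 4 h at 37 C, given compound (0.59 nM to 92 uM) plus 0.4 nM T3 (final) for 18 h, then CCF4 for 2 h at RT; Hill fit gave IC50.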
Tags give direction and shape of the fitted curve or compound fluorescence and quenching.

UniProt P33261, sequence (P33261 whole entry, looked up, canonical isoform): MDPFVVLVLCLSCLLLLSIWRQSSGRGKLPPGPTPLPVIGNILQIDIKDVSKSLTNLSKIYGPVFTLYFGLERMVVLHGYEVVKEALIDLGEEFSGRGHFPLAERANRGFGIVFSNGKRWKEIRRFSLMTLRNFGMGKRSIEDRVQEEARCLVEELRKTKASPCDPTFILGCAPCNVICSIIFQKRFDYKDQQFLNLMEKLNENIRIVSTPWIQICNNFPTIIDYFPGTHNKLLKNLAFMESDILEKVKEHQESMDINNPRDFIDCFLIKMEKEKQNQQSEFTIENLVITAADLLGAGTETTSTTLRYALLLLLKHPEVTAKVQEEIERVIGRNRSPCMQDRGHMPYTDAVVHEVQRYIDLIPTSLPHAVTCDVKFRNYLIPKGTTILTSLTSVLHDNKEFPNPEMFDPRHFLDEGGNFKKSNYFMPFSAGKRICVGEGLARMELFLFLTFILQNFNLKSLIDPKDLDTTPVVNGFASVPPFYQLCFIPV
UniProt P10828, sequence (P10828 whole entry, looked up): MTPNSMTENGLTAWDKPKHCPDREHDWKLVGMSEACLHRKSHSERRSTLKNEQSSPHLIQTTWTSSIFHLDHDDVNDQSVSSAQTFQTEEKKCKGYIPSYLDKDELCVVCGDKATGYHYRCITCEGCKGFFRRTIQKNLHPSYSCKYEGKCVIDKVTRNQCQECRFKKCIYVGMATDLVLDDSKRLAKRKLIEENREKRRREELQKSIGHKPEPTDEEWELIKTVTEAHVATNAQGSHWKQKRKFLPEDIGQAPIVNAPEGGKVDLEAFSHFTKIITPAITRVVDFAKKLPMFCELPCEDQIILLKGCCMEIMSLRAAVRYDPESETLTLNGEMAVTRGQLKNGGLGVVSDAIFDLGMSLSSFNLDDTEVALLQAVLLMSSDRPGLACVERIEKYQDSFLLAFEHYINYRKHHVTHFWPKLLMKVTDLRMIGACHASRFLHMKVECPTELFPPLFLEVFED
UniProt Q9BV86, sequence (Q9BV86 whole entry, looked up): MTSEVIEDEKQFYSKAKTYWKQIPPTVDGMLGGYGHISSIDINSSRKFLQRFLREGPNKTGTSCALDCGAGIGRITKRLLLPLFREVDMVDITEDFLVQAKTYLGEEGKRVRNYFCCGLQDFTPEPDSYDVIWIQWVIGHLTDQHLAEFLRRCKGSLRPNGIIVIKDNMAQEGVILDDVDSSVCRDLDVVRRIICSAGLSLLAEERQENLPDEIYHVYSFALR

Cc1nc2n(c(=O)c1CCN1CCC(c3noc4cc(F)ccc34)CC1)CCC[C@H]2O
Potency [1]: inactive
Potency [2]: inactive

N[C@H](CO)C(=O)O
Potency [3]: inactive
Potency [4]: inactive
Potency [5]: inactive

CC1=C(/C=C/C(C)=C/C=C/C(C)=C/CO)C(C)(C)CCC1
activity change, negative = cytotoxicity [6]: active: -116%
Potency [7]: inconclusive [falling, partial curve]
viability change, negative = cytotoxic [8]: inconclusive: -71.7%
activity change, negative = cytotoxicity [9]: inconclusive: -31.2%
Potency [10]: inconclusive [cytotoxic, partial curve]
Potency [11]: active: 39.8 µM
Potency [12]: inconclusive [cytotoxic, partial curve, poor fit]
Potency [13]: inconclusive [cytotoxic, partial curve]
Potency [14]: inconclusive [cytotoxic, partial curve, poor fit]
Potency [15]: inconclusive [cytotoxic, partial curve, poor fit]
Potency [16]: inconclusive [inhibitor, full curve]

C[C@@H]1C(=O)NC2=Nc3cccc(Cl)c3CN21
Potency [3]: inconclusive [inhibitor, partial curve]
activity change, negative = inhibition [5]: inconclusive: -33.6% [inhibitor]

Cc1ccc2c(Cl)cc(Cl)c(O)c2n1
Potency [2]: inactive

O=C(Nc1ccc(Br)cc1)c1cc(Br)c(Br)s1
Potency [17]: active: 16.9 µM
Potency [18]: inconclusive [inhibitor, single point]

Clc1cc(Cl)c(OCC#CI)cc1Cl
Potency [17]: inconclusive [inhibitor, single point]
Potency [18]: inconclusive [inhibitor, single point]

CO[C@@H]1[C@H](OC(=O)/C=C/C=C/C=C/C=C/C(=O)O)CC[C@]2(CO2)[C@H]1[C@@]1(C)O[C@@H]1CC=C(C)C
activation [19]: inactive: -1.18%

C[C@]12CC[C@@H]3c4ccc(O)cc4CC[C@H]3[C@@H]1CC[C@@H]2O
Potency [7]: inconclusive [falling, partial curve]
viability change, negative = cytotoxic [8]: inconclusive: -52.4%
activity change, negative = cytotoxicity [9]: inconclusive: -37.4%
Potency [3]: inconclusive [inhibitor, partial curve]
activity change % (negative = inhibition) [20]: inconclusive: 0.545%
Potency [15]: inconclusive [cytotoxic, partial curve, poor fit]
Potency [4]: inconclusive [inhibitor, full curve]
Potency [5]: inconclusive [inhibitor, single point]

CCOC(=O)C1=C(C)NC(C)=C(C(=O)OCC)C1c1ccccc1C=CC(=O)OC(C)(C)C
Potency [17]: inconclusive [inhibitor, single point]
Potency [18]: inconclusive [inhibitor, single point]

C[C@@H]1CCC2[C@@H](C)[C@@H](O)O[C@@H]3O[C@@]4(C)CC[C@@H]1[C@@]23OO4 (some centres not stated)
Potency [17]: active: 0.0038 µM

CC(C)=CCC/C(C)=C/CO
Potency [19]: inconclusive [side channel, falling, full curve, poor fit]
Potency [1]: inactive

CCCCC(CC)COC(=O)c1ccc(N(C)C)cc1 (configuration not stated)
activity change, negative = cytotoxicity [6]: inactive: -3.21%
Potency [13]: inactive
Potency [19]: inconclusive [side channel, falling, full curve, poor fit]

CCCCNc1ccc(C(=O)OCCN(C)C)cc1
Potency [4]: inconclusive [inhibitor, partial curve]

CC(C)(C)NC(=O)[C@@H]1C[C@@H]2CCCC[C@@H]2CN1C[C@@H](O)[C@H](Cc1ccccc1)NC(=O)[C@H](CC(N)=O)NC(=O)c1ccc2ccccc2n1
activity change, negative = cytotoxicity [6]: inconclusive: -119%
Potency [7]: active: 50.1 µM
activity change, negative = cytotoxicity [9]: inconclusive: -74.8%
Potency [10]: active: 50.1 µM
Potency [11]: inconclusive [cytotoxic, partial curve, poor fit]
Potency [12]: inconclusive [cytotoxic, partial curve, poor fit]
Potency [13]: inconclusive [cytotoxic, partial curve]
Potency [14]: inconclusive [cytotoxic, partial curve, poor fit]
Potency [19]: inconclusive [side channel, falling, full curve, poor fit]
activity change % (negative = inhibition) [20]: inconclusive: -86.1%
Potency [15]: inconclusive [cytotoxic, partial curve, poor fit]

CC/C=C\C/C=C\C/C=C\CCCCCCCC(=O)O
viability change, negative = cytotoxic [8]: inconclusive: -53.4%
Potency [10]: inconclusive [cytotoxic, partial curve]
Potency [11]: inconclusive [cytotoxic, partial curve, poor fit]
Potency [12]: active: 50.1 µM
Potency [13]: active: 50.1 µM
Potency [14]: active: 39.8 µM
activity change % (negative = inhibition) [20]: inconclusive: -18.3%
Potency [16]: inconclusive [inhibitor, full curve, poor fit]

C/C=C/C=C/C(=O)O
Potency [12]: inactive

CC1=CCC2CC1C2(C)C (configuration not stated)
Potency [14]: inactive
activity change % (negative = inhibition) [20]: inactive: 6.5%
Potency [16]: inconclusive [inhibitor, full curve]

CCN(CC)CCOc1ccc(-c2nc3cc(Cl)ccc3s2)cc1
Potency [18]: inconclusive [inhibitor, partial curve, poor fit]

CCOC(=O)c1ccc(O)c(O)c1
Potency [1]: inconclusive [cytotoxic, single point]
Potency [2]: inconclusive [inhibitor, partial curve, poor fit]
